Experimental data taken from the supplement of paper PMC7238544.
Counter-ions that a name gives are not always drawn. ± gives the standard deviation of the averaged measurements. This is one part of the list.

test system: hAMSC donor 1; experiment: Hoechst total cell count ratio vs vehicle control; hAMSC are human adipose-derived mesenchymal stem cells given an EGFP-luciferase plasmid by lipofection; higher = more cells (less toxicity); conditions: priming compound concentration 100 µM
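Note: compound added 30 min before Lipofectamine 3000 lipoplex delivery, triplicate-well means expressed against DMSO vehicle control wells of the same 96-well plate.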

| SMILES | Hoechst total cell count ratio |
| --- | --- |
| CC(C)[N+](C)(CCOC(=O)C1c2ccccc2Oc2ccccc21)C(C)C [Propantheline bromide] | 1.34 ± 0.3 |
| COCCOC(=O)C1=C(C)NC(C)=C(C(=O)OC(C)C)C1c1cccc([N+](=O)[O-])c1 (stereo unspecified) [Nimodipine] | 1.14 ± 0.058 |
| CN(C)CCOC(c1ccc(Cl)cc1)c1ccccn1 (stereo unspecified) [Carbinoxamine maleate] | 1.464 ± 0.011 |
| CC(C)c1ccc2c(c1)c(SC(C)(C)C)c(CC(C)(C)C(=O)O)n2Cc1ccc(Cl)cc1 | 1.26 ± 0.1 |
| CCN1CCN(c2cc3c(cc2F)c(=O)c(C(=O)O)cn3C2CC2)CC1 [Enrofloxacin] | 0.89 ± 0.011 |
| CN[C@H]1CC[C@@H](c2ccc(Cl)c(Cl)c2)c2ccccc21 [Sertraline hydrochloride] | 0.099 ± 0.035 |
| CC(=O)S[C@@H]1CC2=CC(=O)CC[C@]2(C)[C@H]2CC[C@@]3(C)[C@@H](CC[C@@]34CCC(=O)O4)[C@H]12 [Spironolactone] | 1.39 ± 0.06 |
| O=C(CCCN1CCC(O)(c2ccc(Cl)cc2)CC1)c1ccc(F)cc1 [Haloperidol hydrochloride] | 1.24 ± 0.076 |
| CCCCN1CCCC1CNC(=O)c1cc(C#N)c2ccccc2c1OC (stereo unspecified) [Nafadotride] | 1.16 ± 0.066 |
| O=C(CCNNC(=O)c1ccncc1)NCc1ccccc1 [Nialamide] | 1.34 ± 0.18 |
| NS(=O)(=O)c1cc(C(=O)O)c(NCc2ccco2)cc1Cl [Furosemide] | 1.27 ± 0.22 |
| CCN(CC)CC(=O)Nc1c(C)cccc1C [Lidocaine] | 1.05 ± 0.1 |
| O=C1CC2(CCCC2)CC(=O)N1CCCCN1CCN(c2ncccn2)CC1 [Buspirone hydrochloride] | 1.4 ± 0.1 |
| Cc1cccc(CN2CCN(C(c3ccccc3)c3ccc(Cl)cc3)CC2)c1 (stereo unspecified) [Meclizine hydrochloride] | 1.44 ± 0.2 |
| C[C@@](Cc1ccc(O)c(O)c1)(NN)C(=O)O [Carbidopa] | 1.1 ± 0.016 |
| C#C[C@]1(O)CC[C@H]2[C@@H]3CCc4cc(OC)ccc4[C@H]3CC[C@@]21C [Mestranol] | 1.21 ± 0.12 |
| CC1(C)S[C@@H]2[C@H](NC(=O)Cc3ccccc3)C(=O)N2[C@H]1C(=O)O [Penicillin G potassium] | 1.45 ± 0.24 |
| O=C1[C@H](CC[C@H](O)c2ccc(F)cc2)[C@@H](c2ccc(O)cc2)N1c1ccc(F)cc1 [Ezetimibe] | 1.12 ± 0.15 |
| Nc1nc2c(ncn2COC(CO)CO)c(=O)[nH]1 [Ganciclovir] | 1.15 ± 0.015 |
| Nc1c2c(nc3ccccc13)CCCC2 [Tacrine hydrochloride] | 1.43 ± 0.2 |
| CCN1CCC[C@H]1CNC(=O)c1cc(S(N)(=O)=O)ccc1OC [Levosulpiride] | 1.08 ± 0.067 |
| Cn1ccnc1S [Methimazole] | 1.21 ± 0.23 |
| COc1cc([C@@H]2c3cc4c(cc3[C@@H](O[C@@H]3O[C@@H]5CO[C@@H](C)O[C@H]5[C@H](O)[C@H]3O)[C@H]3COC(=O)[C@H]23)OCO4)cc(OC)c1O [Etoposide] | 0.639 ± 0.23 |
| OCc1cccnc1 [3-Pyridinemethanol] | 1.36 ± 0.08 |
| C[C@H]1C[C@@H]2[C@H]([C@@H](O)C[C@@]3(C)[C@H]2CC[C@]3(O)C(=O)CO)[C@@]2(C)C=CC(=O)C=C12 [Methylprednisolone] | 1.08 ± 0.11 |
| COC(=O)[C@H](c1ccccc1Cl)N1CCc2sccc2C1 [Clopidogrel] | 1.38 ± 0.098 |
